Reference: the supplement of paper PMC8728848
The other results are listed elsewhere or left out.

Key:
Experiment in all cases: glycan array binding signal (z-score within array); higher = stronger binding
Details in all cases: glycan notation: IUPAC condensed, linker removed
[1] = target: Fuc(a1-2)Gal
Method in brief: (§1)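 Arrays were curated from the Consortium for Functional Glycomics database, 3228 in total, and kept only where the protein sequence was available. Binding is expressed as a within-array Z-score. This score was averaged across arrays of the same protein sequence at different concentrations or buffers and across linkers, and negative values can be read as non-binding.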

[2] = target: Fuc(a1-2)Gal(b1-3)GalNAc
Method in brief: as §1

[3] = target: Fuc(a1-2)Gal(b1-3)GalNAc(a1-3)[Fuc(a1-2)]Gal(b1-4)Glc
Method in brief: as §1

[4] = target: Fuc(a1-2)Gal(b1-3)GalNAc(a1-3)[Fuc(a1-2)]Gal(b1-4)GlcNAc
Method in brief: as §1

[5] = target: Fuc(a1-2)Gal(b1-3)GalNAc(b1-3)Gal
Method in brief: as §1

[6] = target: Fuc(a1-2)Gal(b1-3)GalNAc(b1-3)Gal(a1-4)Gal(b1-4)Glc
Method in brief: as §1

[7] = target: Fuc(a1-2)Gal(b1-3)GalNAc(b1-4)[Neu5Ac(a2-3)]Gal(b1-4)Glc
Method in brief: as §1

[8] = target: Fuc(a1-2)Gal(b1-3)GlcNAc
Method in brief: as §1

[9] = target: Fuc(a1-2)Gal(b1-3)GlcNAc(b1-2)Man(a1-3)[Fuc(a1-2)Gal(b1-3)GlcNAc(b1-2)Man(a1-6)]Man(b1-4)GlcNAc(b1-4)GlcNAc
Method in brief: as §1

[10] = target: Fuc(a1-2)Gal(b1-3)GlcNAc(b1-2)Man(a1-3)[Fuc(a1-2)Gal(b1-3)GlcNAc(b1-2)Man(a1-6)]Man(b1-4)GlcNAc(b1-4)[Fuc(a1-6)]GlcNAc
Method in brief: as §1

[11] = target: Fuc(a1-2)Gal(b1-3)GlcNAc(b1-3)Gal(b1-4)Glc
Method in brief: as §1

[12] = target: Fuc(a1-2)Gal(b1-3)GlcNAc(b1-3)GalNAc
Method in brief: as §1

[13] = target: Fuc(a1-2)Gal(b1-3)GlcNAc(b1-3)[Fuc(a1-2)Gal(b1-3)GlcNAc(b1-6)]GalNAc
Method in brief: as §1

[14] = target: Fuc(a1-2)Gal(b1-3)GlcNAc(b1-3)[Gal(b1-4)GlcNAc(b1-6)]Gal(b1-4)Glc
Method in brief: as §1

[15] = target: Fuc(a1-2)Gal(b1-3)GlcNAc(b1-3)[Neu5Ac(a2-6)Gal(b1-4)GlcNAc(b1-6)]Gal(b1-4)Glc
Method in brief: as §1

[16] = target: Fuc(a1-2)Gal(b1-3)GlcNAc6S
Method in brief: as §1

[17] = target: Fuc(a1-2)Gal(b1-3)[Fuc(a1-4)]GlcNAc
Method in brief: as §1

[18] = target: Fuc(a1-2)Gal(b1-3)[Fuc(a1-4)]GlcNAc(b1-2)Man(a1-3)[Fuc(a1-2)Gal(b1-3)[Fuc(a1-4)]GlcNAc(b1-2)Man(a1-3)]Man(b1-4)GlcNAc(b1-4)GlcNAc
Method in brief: as §1

[19] = target: Fuc(a1-2)Gal(b1-3)[Fuc(a1-4)]GlcNAc(b1-2)Man(a1-3)[Fuc(a1-2)Gal(b1-3)[Fuc(a1-4)]GlcNAc(b1-2)Man(a1-6)]Man(b1-4)GlcNAc(b1-4)[Fuc(a1-6)]GlcNAc(b1-4)[Fuc(a1-6)]GlcNAc
Method in brief: as §1

[20] = target: Fuc(a1-2)Gal(b1-3)[Fuc(a1-4)]GlcNAc(b1-3)[Fuc(a1-3)[Gal(b1-4)]GlcNAc(b1-6)]Gal(b1-4)Glc
Method in brief: as §1

[21] = target: Fuc(a1-2)Gal(b1-3)[Fuc(a1-4)]GlcNAc(b1-3)[Gal(b1-4)GlcNAc(b1-6)]Gal(b1-4)Glc
Method in brief: as §1

[22] = target: Fuc(a1-2)Gal(b1-4)Fuc(a1-3)]GlcNAc(b1-2)Man(a1-3)[Fuc(a1-2)Gal(b1-4)[Fuc(a1-3)]GlcNAc(b1-2)Man(a1-6)]Man(b1-4)GlcNAc(b1-4)GlcNAc
Method in brief: as §1

[23] = target: Fuc(a1-2)Gal(b1-4)Glc
Method in brief: as §1

[24] = target: Fuc(a1-2)Gal(b1-4)Glc6S
Method in brief: as §1

[25] = target: Fuc(a1-2)Gal(b1-4)GlcNAc
Method in brief: as §1

[26] = target: Fuc(a1-2)Gal(b1-4)GlcNAc(b1-2)Man
Method in brief: as §1

[27] = target: Fuc(a1-2)Gal(b1-4)GlcNAc(b1-2)Man(a1-3)[Fuc(a1-2)Gal(b1-4)GlcNAc(b1-2)Man(a1-6)]Man(b1-4)GlcNAc(b1-4)GlcNAc
Method in brief: as §1

[28] = target: Fuc(a1-2)Gal(b1-4)GlcNAc(b1-2)Man(a1-3)[Fuc(a1-2)Gal(b1-4)GlcNAc(b1-2)Man(a1-6)]Man(b1-4)GlcNAc(b1-4)[Fuc(a1-6)]GlcNAc
Method in brief: as §1

[29] = target: Fuc(a1-2)Gal(b1-4)GlcNAc(b1-2)[Fuc(a1-2)Gal(b1-4)GlcNAc(b1-4)]Man(a1-3)[Fuc(a1-2)Gal(b1-4)GlcNAc(b1-2)Man(a1-6)]Man(b1-4)GlcNAc(b1-4)GlcNAc
Method in brief: as §1

[30] = target: Fuc(a1-2)Gal(b1-4)GlcNAc(b1-3)Gal(b1-4)GlcNAc
Method in brief: as §1

B1: PFL (Pseudomonas fluorescens) (protein)
chain: MSKYAVANQWGGSSAPWHPGGTWVLGARDNQNVVAIEIKSGDGGKSFTGTMTYAGEGPIGFKAQRTGQNQYNVENQWGGNDAPWHPGGKWVIGGRDNQNVIALSVTSSDGGKNLSGTNTYANEGPIGFRGQIE
glycan array binding signal (z-score) [1]: -0.117
glycan array binding signal (z-score) [2]: -0.112
glycan array binding signal (z-score) [3]: -0.115
glycan array binding signal (z-score) [4]: -0.115
glycan array binding signal (z-score) [5]: -0.114
glycan array binding signal (z-score) [6]: -0.111
glycan array binding signal (z-score) [7]: -0.109
glycan array binding signal (z-score) [8]: -0.112
glycan array binding signal (z-score) [9]: 0.214
glycan array binding signal (z-score) [10]: -0.108
glycan array binding signal (z-score) [11]: -0.11
glycan array binding signal (z-score) [12]: -0.116
glycan array binding signal (z-score) [13]: 0.097
glycan array binding signal (z-score) [14]: -0.11
glycan array binding signal (z-score) [15]: -0.108
glycan array binding signal (z-score) [16]: -0.096
glycan array binding signal (z-score) [17]: -0.118
glycan array binding signal (z-score) [18]: -0.044
glycan array binding signal (z-score) [19]: 0.119
glycan array binding signal (z-score) [20]: -0.113
glycan array binding signal (z-score) [21]: 0.109
glycan array binding signal (z-score) [22]: -0.066
glycan array binding signal (z-score) [23]: -0.113
glycan array binding signal (z-score) [24]: -0.109
glycan array binding signal (z-score) [25]: -0.119
glycan array binding signal (z-score) [26]: -0.113
glycan array binding signal (z-score) [27]: 0.051
glycan array binding signal (z-score) [28]: -0.102
glycan array binding signal (z-score) [29]: 0.16
glycan array binding signal (z-score) [30]: -0.12
